Laboratory results from the supplement of paper PMC11417369.
This is one part of the list.

test system: PfSIP2 AP2 domain 1 (GST-tagged); assay: gcPBM binding intensity (ln(normalized median fluorescence intensity)); higher = stronger DNA binding
Procedure, shortened: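 After 1 h on an Agilent 4 × 180k array of primer-extended double-stranded 36-bp intergenic genomic probes and negative controls, bound GST-tagged P. falciparum DNA-binding domains were detected with Alexa488 anti-GST antibody and scanned at 488 nm. The domains had been expressed in E. coli, and binding took place in 1× PBS with 1% milk, 0.2 mg/ml BSA, 0.5% salmon testes DNA and 0.03% Triton X-100. Binding intensity is the highest Masliner-normalised natural-log median intensity across replicate spots of either probe orientation.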

Sequence | gcPBM binding intensity (ln)
GCAGTATGCGATCAGTGTACGAGTTATTTTATAAAA [XGTACX_site4764] | 6.69
GTTATACACATATATACACACATATGTAAATATATA [CACACA_site9080] | 7.19
CTAATATATGTATGCACACACAATATATACATATTT [CACACA_site3360] | 7.74
ATATTACAAATATAATGTACAAAATATAAATATGCA [XGTACX_site8106] | 6.85
GTCCTTACTAATTAATTTTAGGCCATATAGTTTGTC [XGTACX_negctrl_site199] | 7.23
TGCCATATATATATTAAATACATAATAATGAGCCTA [GTGCAC_negctrl_site10] | 6.96
AGTCATAAATTTATTTGTACATATAATATATATATA [XGTACX_site8489] | 8.66
ATAAACAAAAAAAAAAAATATATCAATATATATATA [CACACA_negctrl_site299] | 8.82
AAAATATATAATTTTTAACACACAAAAAAAAAAAAA [CACACA_site9192] | 6.95
ATGTTATATTTTTTTATACACACTGGGATATATAAA [CACACA_site6244] | 7.11
TTCATTGTGTTAACGGTGCATATATTTTTTCACCGT [GTGCAC_site9464] | 10.3
ATATTAAAAAAATATGCATGCAAATATTATTTTGTA [TGCATGCA_site191] | 6.85
TAAAAATATAAAAAGTGTACAATATATAAATTAATA [XGTACX_site1606] | 6.88
AATCAAATTTTCAAGTCGCACCAAACAAAAAAATGA [CACACA_negctrl_site1397] | 9.09
TTTTTCTTTTTTTTTTTAATAATATATAACAAATTT [CACACA_negctrl_site1724] | 6.81
TATTTAATTAATATAATATTAAACGGAAAAGATAAA [TGCATGCA_negctrl_site148] | 7.22
AATGTGTAGGTAAGATAATTTTTGTTTTTTTATTTG [CACACA_negctrl_site424] | 6.69
ATATTTATAATATAGAGTACTTACTAAGTTATGGGT [XGTACX_site5405] | 7.21
TTAAACTTGAAACACACACACACACCCATATAAAAA [CACACA_site758] | 6.99
AAATTTTCTTAAGGTTGTACTTTTTGAAAATAATCT [XGTACX_site4894] | 6.94
TTTTTATATATATGTATAAATATTTTTTCTATTTAT [XGTACX_negctrl_site606] | 6.66
TGTAGTCTGGAGAAACGTACATAGTATCTGGTAGCT [XGTACX_site2538] | 6.84

Sequence | gcPBM binding intensity (ln)
GAATTTCAACAAAGTAGTACATTTTATAGTAATTGG [XGTACX_site2319] | 6.81
ATAAATATGTTCTGCACACAAATAAGTGTTTGAAGT [CACACA_site3892] | 7.27
TAATGGAATAAAAATTGTACATATTTTTTTTTTTTT [XGTACX_site7669] | 7.02
TTTTTTTCTCTCTCTACACACAAGGTTTAATTTAAA [CACACA_site1690] | 7.1
TATAATATATCTGTAACACACAAAAGTTATATACTT [CACACA_site5578] | 6.93
AACTCACGAGGACACACACACATATATATATATATA [CACACA_site4711] | 9.27
ACATACATACATACATACATACATACATACATACAT [XGTACX_negctrl_site315] | 8.34
TCATAGGGGTAGAAGGTGCAATAAAAAAGAAGAAAA | 10.7
ATTGCGTGATAATAATGTACAAAAAGTAATTTATAT [XGTACX_site8339] | 6.95
TCATTCTAAATATAAACACACATAAATATATACATT [CACACA_site3354] | 6.93
AATATATAATTTTTAACACACAAAAAAAAAAAAAAT [CACACA_site3581] | 6.83
AAAAAAAAAAAAAAAACACACACATATAATATATTT [CACACA_site8369] | 7.66
GGTACGTATTTCAATGCATGTCCATGTACATATAAA [TGCATGCA_site208] | 7.25
CATACGTTCTAATATATACACACCTGGTATTAATTA [CACACA_site2221] | 7
CTATAATGTTTCTTTCAACACACAAAAAATGAACAC [CACACA_site8438] | 7.51
AAAAAAAAAAAAAAAAGTACAAAAATATATATGCAT [XGTACX_site8392] | 7.37
TATGCACAGAAACACACACACACAACCAAAAAATAA [CACACA_site5425] | 7.41
TTTTTATTTATATGTATACACACTTTAATTAAAAGT [CACACA_site2525] | 7.36
AATAAAAAAAAATGCACACATATATATATATATATA [CACACA_site2421] | 9.66
TGTTATATATAAATTTGTACACATAAATATTTTTAC [XGTACX_site5873] | 7.13
CAGAATATATTCTATACATGCAATAGGAAATGTAGC [TGCATGCA_site110] | 7.57
TTTCTTATTTTTTTCACACACTAAACATTTCAAATG [CACACA_site5259] | 7.35

Sequence | gcPBM binding intensity (ln)
TCAATAAGATTATAAAGTACTTTTGAAGATATTATA [XGTACX_site7489] | 6.92
AAATATTTAAATATTATGTATGATTATATATATATA [CACACA_negctrl_site590] | 8.78
AAATAAATAAATAAATGTACACATATATATATATAT [XGTACX_site7787] | 9.36
AAAGAGAACATAAGTACACACATGTTCTTTTAGTAA [CACACA_site2824] | 6.71
AAAAAAAAAAAAAAAACACACAAAAGCAAGAAAAAC [CACACA_site3198] | 7.65
AAAGTAAAAACACATACATGCATATACACATATAAC [TGCATGCA_site341] | 7.18
AATAGGAAAACCTATACACACTTTAAAAAAAATATA [CACACA_site4977] | 6.73
ATAAATATGTATTGCTGTACATATATATAAATTATC [XGTACX_site8411] | 7.13
TAAAAAATTTTCGCGTGTACGCAAGAAAAAAAAAAT [XGTACX_site3058] | 7.59
TTTTTGCCATATTACACACACACATGGAAACCCCCT [CACACA_site4994] | 8.03
TATATATTTAGTTAGTGTACAAGTTATTTAGTAGTT [XGTACX_site5133] | 7.17
TCTTTTAACAAATAATAAGCTAATTTATATTATTAT [GTGCAC_negctrl_site655] | 6.78
AAAAAAATAATGTATATATAAATTTATTTACATATG [GTGCAC_negctrl_site107] | 6.91
TAAAAAATAAGATATACACACATATATTTATTTATA [CACACA_site7158] | 6.72
CAAATAAATTAAAGGTGTACTTTTATAGTTACGACA [XGTACX_site3926] | 6.71
CATATTTTCTTGTGTACACATTTATTTTATACTATA [CACACA_site6032] | 7.49
CACCCACCCAGACACACACACACACCCCCACCCATA [CACACA_site367] | 7.6
AATTATTTATTGAGAGTGCAACAAATTATTTCAAAT [GTGCAC_site9461] | 8.54
ACATTTTAAATACGATGTACTTGAGTTTTTTTTAAA [XGTACX_site5833] | 6.95
TTTTTTTGCATGAGCAATAAAAAAGGCTTGTTCAAA [CACACA_negctrl_site1615] | 6.57
GAAATAAAAGATGGTTGTACACCGTTTTCTCATATA [XGTACX_site5368] | 6.92
TACATATATGATAAAAGTACATATAAATATACATAA [XGTACX_site3804] | 6.93

Sequence | gcPBM binding intensity (ln)
TATATGAATAAACATTGTACGTAAATATTAACTATC [XGTACX_site543] | 7.15
TTATATATTAAGAAATGTACGAAAAAAAAAATTATA [XGTACX_site3893] | 6.94
AAGATGATAAAATATGTACACACAGTTTATACATTT [CACACA_site9341] | 6.97
AAAAAAAATTATATATGTACTTATTAATCCTTTTAT [XGTACX_site1387] | 6.81
TATAATAATAATAATAATAATAATAATAATAATAAT [CACACA_negctrl_site905] | 7.54
CGCATAAAGACAAGAACACACATATAGATTGTAGTA [CACACA_site3693] | 6.75
CATAATAAGTATAACGTTAGTTACAAACAGCTTGTT [CACACA_negctrl_site937] | 6.74
AAAATAATGTATATAGTGCAAATGAAAACGAAAAAA [GTGCAC_site9455] | 8.32
TTTTTAAATAAATGTTTTTATTATATACATATCAAT [TGCATGCA_negctrl_site423] | 6.79
TTTGTTTTTTTGAGAGTGCAATATATATAAAAAGGG [GTGCAC_site9691] | 9.1
TTGGTGATATTTTTCTCACACATTTACCAGAGATGT [CACACA_site4684] | 6.85
GTAGATATTTATTGAGTGCATGTTATAAAGGGAAAA [GTGCAC_site9481] | 9.62
TTTTTATTTTTTTACAGTACATAAAATAAATAAATA [XGTACX_site6596] | 7.21
TTTTTTTTATGGAAACGTACATACATACATTAAAGA [XGTACX_site7401] | 7.46
TATTTATATATTTATGCATGTTATAGGCAAAAATGT [TGCATGCA_site397] | 7.13
TATATTGATGATGATAGTACGTATGAATACAAAAAA [XGTACX_site4] | 6.83
AAGAGTAAAATATGGTTGCACTAAAAATATATATTT [GTGCAC_site9484] | 7.78
TTATAGAGCTTATTCACACATACATATGTATTTATA [CACACA_site5775] | 7.04
ATAATAAAAATATACTGTACATTTGTAAATTCTTTT [XGTACX_site4655] | 6.81
TAAAACATATAAAGGTGTACGCCTTTTTGTATCAAT [XGTACX_site6064] | 7.13
TATATTTGTTGACACACACACAAAAAAAAAAAAAAA [CACACA_site7211] | 7.13
GTCTACTACACTAAATGTACAAGAAAAAAGAAAAAA [XGTACX_site4660] | 7.49
